A lower IC50 marks a more sensitive line; a fit beyond the top or the lowest dose is shown as a bound at that dose. AUC sums up the same curve from the lowest dose to the 256-fold higher top dose; the more sensitive the line, the further below 1. A top dose marked as inferred is not printed in the source and was worked back from the curve model. An entry number marks a drug with two screens in the source, which often give different values.

Compound in the first assay: NC(=O)[C@@H](CCC(F)(F)F)N(Cc1ccc(-c2ncon2)cc1F)S(=O)(=O)c1ccc(Cl)cc1 [BMS-708163]
The assay can be described thus: Viability of human cancer cell lines after 72 h of drug (GDSC screen). As to conditions: screen: GDSC drug entry 205; top dose inferred. On the procedure:
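Human cancer cell lines in 384-well plates, medium with 10% serum, drug for 72 h over a 256-fold dose range (nine 2-fold or five 4-fold steps up to the top dose). Adherent lines were fixed and stained with the nucleic acid dye Syto60, suspension lines read with resazurin; signal relative to control wells, capped at 0 and 100%. One two-parameter sigmoid per drug and line, fitted in a mixed model over all curves with the slope shared within a line.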
As for “COR-L303 (small cell lung carcinoma, suspension, top dose 10.24 µM)”, the AUC was 0.987 and the IC50 was above 10.2 µM.

Regarding “COR-L311 (small cell lung carcinoma, suspension, top dose 10.24 µM)”, the AUC was 0.978 and the IC50 is above 10.2 µM.

Take “COR-L321 (lung, suspension, top dose 10.24 µM)”: the AUC stood at 0.989 and the IC50 is above 10.2 µM.

For the cell line “CP50-MEL-B (melanoma, adherent, top dose 10.24 µM)”, the AUC turned out to be 0.988 and the IC50 was above 10.2 µM.

Regarding “CP66-MEL (melanoma, adherent, top dose 10.24 µM)”, the AUC stood at 0.984 and the IC50 is above 10.2 µM.

As to “CPC-N (small cell lung carcinoma, suspension, top dose 10.24 µM)”, the AUC turned out to be 0.984 and the IC50 was above 10.2 µM.

With CS1 (bone, adherent, top dose 10.24 µM), the AUC amounted to 0.984 and the IC50 is above 10.2 µM.

For the cell line “CTB-1 (B-cell lymphoma, suspension, top dose 10.24 µM)”, the AUC worked out at 0.966 and the IC50 is above 10.2 µM.

For the cell line “CTV-1 (acute myeloid leukaemia, suspension, top dose 2.56 µM)”, the AUC came to 0.99 and the IC50 was above 2.56 µM.

With “CW-2 (large intestine, adherent, top dose 2.56 µM)”, the AUC turned out to be 0.989 and the IC50 was above 2.56 µM.

Take “Ca9-22 (head and neck, adherent, top dose 10.24 µM)”: the AUC is 0.988 and the IC50 is above 10.2 µM.

For “Ca-Ski (cervix, adherent, top dose 10.24 µM)”, the AUC was 0.973 and the IC50 was above 10.2 µM.

As for “CaR-1 (large intestine, adherent, top dose 10.24 µM)”, the AUC was 0.978 and the IC50 is above 10.2 µM.

With “Calu-3 (lung adenocarcinoma, adherent, top dose 10.24 µM)”, the AUC is 0.968 and the IC50 was above 10.2 µM.

Regarding “Calu-6 (lung adenocarcinoma, adherent, top dose 2.56 µM)”, the AUC turned out to be 0.984 and the IC50 was above 2.56 µM.

As for “Caov-3 (ovary, adherent, top dose 10.24 µM)”, the AUC was determined as 0.987 and the IC50 was above 10.2 µM.

Consider “Caov-4 (ovary, adherent, top dose 10.24 µM)”, for which the AUC came to 0.966 and the IC50 is above 10.2 µM.

For the cell line “Capan-2 (pancreas, adherent, top dose 10.24 µM)”, the AUC worked out at 0.977 and the IC50 is above 10.2 µM.

Turning to “ChaGo-K-1 (non-small cell lung carcinoma, adherent, top dose 10.24 µM)”, the AUC was found to be 0.985 and the IC50 is above 10.2 µM.

Take “D-247MG (glioma, adherent, top dose 10.24 µM)”: the AUC was determined as 0.946 and the IC50 was above 10.2 µM.

On to “D-263MG (glioma, adherent, top dose 10.24 µM)”, for which the AUC stood at 0.983 and the IC50 was above 10.2 µM.

Regarding “D-283MED (medulloblastoma, adherent, top dose 10.24 µM)”, the AUC was 0.99 and the IC50 is above 10.2 µM.

As for “D-336MG (glioma, adherent, top dose 10.24 µM)”, the AUC was 0.972 and the IC50 is above 10.2 µM.

“D-392MG (glioma, adherent, top dose 10.24 µM)”: the AUC is 0.975 and the half-inhibitory concentration (IC50) is above 10.2 µM.

As to “D-423MG (glioma, adherent, top dose 10.24 µM)”, the AUC worked out at 0.968 and the IC50 is above 10.2 µM.

Take “D-502MG (glioma, adherent, top dose 10.24 µM)”: the AUC was 0.918 and the IC50 is above 10.2 µM.

Turning to “D-542MG (glioma, adherent, top dose 10.24 µM)”, the AUC worked out at 0.984 and the IC50 is above 10.2 µM.

As for “D-566MG (glioma, adherent, top dose 10.24 µM)”, the AUC is 0.986 and the IC50 is above 10.2 µM.

Consider “DAN-G (pancreas, adherent, top dose 10.24 µM)”, for which the AUC was 0.992 and the IC50 was above 10.2 µM.

As for “DB (B-cell lymphoma, suspension, top dose 10.24 µM)”, the AUC was 0.983 and the IC50 is above 10.2 µM.

Take “DBTRG-05MG (glioma, adherent, top dose 10.24 µM)”: the AUC is 0.981 and the IC50 was above 10.2 µM.

As for “DEL (lymphoid neoplasm, suspension, top dose 10.24 µM)”, the AUC came out at 0.994 and the IC50 is above 10.2 µM.

As to “DG-75 (Burkitt lymphoma, suspension, top dose 10.24 µM)”, the AUC stood at 0.987 and the IC50 is above 10.2 µM.

“DJM-1 (skin, adherent, top dose 10.24 µM)”: the AUC is 0.989 and the IC50 is above 10.2 µM.

Take “DK-MG (glioma, adherent, top dose 10.24 µM)”: the AUC was found to be 0.977 and the IC50 is above 10.2 µM.

As for “DMS-53 (small cell lung carcinoma, adherent, top dose 10.24 µM)”, the AUC worked out at 0.985 and the IC50 is above 10.2 µM.

On to “DMS-79 (small cell lung carcinoma, suspension, top dose 10.24 µM)”, for which the AUC was determined as 0.986 and the IC50 is above 10.2 µM.

For the cell line “DMS-114 (small cell lung carcinoma, adherent, top dose 10.24 µM)”, the AUC is 0.982 and the IC50 was above 10.2 µM.

Consider “DMS-273 (small cell lung carcinoma, adherent, top dose 10.24 µM)”, for which the AUC was found to be 0.977 and the half-inhibitory concentration (IC50) was above 10.2 µM.

Consider “DND-41 (T-cell leukaemia, suspension, top dose 10.24 µM)”, for which the AUC came to 0.962 and the half-inhibitory concentration (IC50) is above 10.2 µM.

On to “DOK (head and neck, adherent, top dose 10.24 µM)”, for which the AUC came to 0.975 and the IC50 was above 10.2 µM.

“DOV13 (ovary, adherent, top dose 10.24 µM)”: the AUC was found to be 0.983 and the IC50 is above 10.2 µM.

Regarding “DSH1 (bladder, adherent, top dose 10.24 µM)”, the AUC stood at 0.984 and the IC50 was above 10.2 µM.

With “DU-145 (prostate, adherent, top dose 10.24 µM)”, the AUC was found to be 0.984 and the IC50 is above 10.2 µM.

Consider “DU-4475 (breast, suspension, top dose 10.24 µM)”, for which the AUC is 0.992 and the IC50 is above 10.2 µM.

With “Daoy (medulloblastoma, adherent, top dose 10.24 µM)”, the AUC turned out to be 0.975 and the IC50 is above 10.2 µM.

With “Daudi (Burkitt lymphoma, suspension, top dose 10.24 µM)”, the AUC came to 0.99 and the IC50 is above 10.2 µM.

In the case of “Detroit562 (head and neck, adherent, top dose 10.24 µM)”, the AUC amounted to 0.988 and the IC50 was above 10.2 µM.

As to “DoTc2-4510 (cervix, adherent, top dose 10.24 µM)”, the AUC was determined as 0.989 and the IC50 was above 10.2 µM.

Take “EB2 (Burkitt lymphoma, suspension, top dose 10.24 µM)”: the AUC was found to be 0.988 and the IC50 is above 10.2 µM.

In the case of “EB-3 (Burkitt lymphoma, suspension, top dose 10.24 µM)”, the AUC turned out to be 0.978 and the IC50 was above 10.2 µM.

With “EBC-1 (lung squamous cell carcinoma, adherent, top dose 10.24 µM)”, the AUC came out at 0.983 and the IC50 is above 10.2 µM.

For “EC-GI-10 (oesophagus, adherent, top dose 10.24 µM)”, the AUC amounted to 0.989 and the IC50 was above 10.2 µM.

Turning to “ECC10 (stomach, suspension, top dose 10.24 µM)”, the AUC was 0.959 and the IC50 is above 10.2 µM.

With “EFM-19 (breast, adherent, top dose 10.24 µM)”, the AUC was determined as 0.977 and the IC50 is above 10.2 µM.

Consider “EFM-192A (breast, adherent, top dose 10.24 µM)”, for which the AUC is 0.984 and the IC50 was above 10.2 µM.

On to “EFO-21 (ovary, adherent, top dose 10.24 µM)”, for which the AUC came out at 0.975 and the IC50 is above 10.2 µM.

Regarding “EFO-27 (ovary, adherent, top dose 10.24 µM)”, the AUC is 0.981 and the IC50 was above 10.2 µM.

Regarding “EGI-1 (biliary tract, adherent, top dose 10.24 µM)”, the AUC came to 0.982 and the IC50 is above 10.2 µM.

As to “EJM (lymphoid neoplasm, semi-adherent, top dose 10.24 µM)”, the AUC came to 0.986 and the IC50 is above 10.2 µM.

The same assay, now with this note: top dose 5 µM; screen: GDSC drug entry 1072; top dose inferred.
Turning to COR-L321 (lung, suspension), the AUC amounted to 0.986 and the IC50 is above 5 µM.

On to CRO-AP2 (B-cell lymphoma, suspension), for which the AUC amounted to 0.987 and the IC50 was above 5 µM.

On to D-423MG (glioma, adherent), for which the AUC was determined as 0.934 and the IC50 was above 5 µM.

Consider D-566MG (glioma, adherent), for which the AUC was 0.983 and the IC50 was above 5 µM.

With DIFI (large intestine, adherent), the AUC stood at 0.986 and the IC50 is above 5 µM.

Turning to DOV13 (ovary, adherent), the AUC is 0.977 and the IC50 is above 5 µM.

The term IC50 denotes the midpoint of a concentration-inhibition curve.

These data come from the supplement of paper PMC4967469.
